Laboratory results taken from PubChem BioAssay AID1347417 (National Center for Advancing Translational Sciences (NCATS), 2020).
Hit rate of the full screen: of about 120,000 compounds, about 5,300 (4.4%) were called active. The inconclusive results got no clear call from the source; some entries with a clear call stand among them for comparison. Calls come from the whole dose curve; as a rule, active = well fitted inhibition curve with a large enough effect; inconclusive = small, poorly fitted or top-dose-only effect; inactive = no such curve, though single readings can be large or run the other way. A potency beside an inconclusive call is a rough fit, not a confirmed value.

test: qHTS Primary assay for Inhibitors of Plasmodium falciparum Dd2 growth in vitro; note: nearly all actives have a fitted effect of over 65% in size;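 for activity, negative = inhibition: plate controls were DMSO vehicle for no effect and reference drug for full effect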; details: P. falciparum Dd2 growth, SYBR Green, 72 h; activity, negative = inhibition: at 28.9 µM (top of the series) unless noted; series mostly up to 28.9 µM
Procedure, shortened: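 Readout: SYBR Green fluorescence, 485 nm excitation, 535 nm emission, after ~16 h lysis at 37C. Before that, Dd2-infected red cells (2.5% hematocrit) grew 72 h with compound, 29 uM top final concentration.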
Potency is the fitted concentration of half-maximal effect; tags give direction and shape of the fitted curve.

SMILES	Potency	activity, negative = inhibition	outcome
COC(=O)CC1Oc2ccccc2-n2cc(-c3ccc(Cl)cc3)nc21 (configuration not stated)	active: 3.55 µM	–	–
CN1CCCN(C(=O)C2CCCC2)c2ccccc21	inconclusive: 14.1 µM [inhibitor, partial curve, poor fit]	–	–
Cc1ccccc1C(=O)Nc1nnc(S(=O)(=O)N2CCCCCC2)s1	inconclusive: 8.91 µM [inhibitor, partial curve, poor fit]	–	–
O=C(NCc1cccs1)c1cc(-c2ccc(Cl)cc2Cl)c2nncn2n1	inconclusive: 12.6 µM [inhibitor, partial curve, poor fit]	–	–
O=C(COc1ccccc1)N1CC[C@H](c2nnc(-c3ccccc3)o2)C1	inconclusive: 12.6 µM [inhibitor, partial curve]	–	–
COc1ccc(C(=O)N[C@@H]2CCC[C@@H]2C(=O)NCc2ccccn2)cc1	inconclusive: 8.91 µM [inhibitor, partial curve, poor fit]	–	–
COc1ccc(CNC(=O)Cc2csc3nc(-c4ccc(C)cc4)cn23)cc1	inconclusive: 8.91 µM [inhibitor, single point]	–	–
CC(C)CNC(=O)c1coc(COc2ccc3c(c2)C(c2cccc(F)c2)N(C(=O)C2CC2)CC3)n1 (configuration not stated)	inconclusive: 2.51 µM [inhibitor, partial curve, poor fit]	–	–
Cc1ccc(N(C)C(=O)C2CCCN(c3ncnc4c3nc3n4CCCCC3)C2)cc1C (configuration not stated)	inconclusive: 17.8 µM [inhibitor, single point]	–	–
CCOC(=O)C1(Cc2ccc(OC)cc2)CCNCC1	inconclusive: 12.6 µM [inhibitor, single point]	–	–
CCc1nc(CN(C)C(C(=O)O)c2ccc(C(C)(C)C#N)cc2)no1 (configuration not stated)	inconclusive: 0.0891 µM [inhibitor, full curve, poor fit]	–	–
Cc1ccc2nc([C@H]3CCN(Cc4ccccn4)C3)[nH]c2c1	inconclusive: 4.47 µM [inhibitor, single point]	–	–
COc1ccc2c(c1)C1(CCN(C(=O)Nc3ccc(OC)c(OC)c3)C1)C(=O)N2 (configuration not stated)	–	inactive: 27.8%	–
CCCS(=O)(=O)N1CC[C@@H]2C(=O)NCCCCCCN(Cc3ccncc3)[C@@H]2C1	inconclusive: 17.8 µM [inhibitor, single point]	–	–
COC1C(=O)N(c2cccc(F)c2)C12CCN(S(=O)(=O)c1ccc(C#N)cc1)CC2 (configuration not stated)	inconclusive: 12.6 µM [inhibitor, partial curve, poor fit]	–	–
C[C@@H]1CN(C(=O)c2cccc(N3CCCC3=O)c2)C[C@@]1(O)C1CCC1	–	–	inactive
COc1ccccc1CNC(=O)c1cnn(-c2ccc(F)cc2F)c1C1CCN(C(=O)OC(C)(C)C)CC1	active: 10 µM	–	–
CC(=O)Nc1cccc(-c2ccc3c(n2)CN(Cc2ccccc2F)C(=O)CO3)c1	inconclusive: 35.5 µM [inhibitor, partial curve, poor fit]	–	–
COc1ccc(C(=O)NC2CCCc3c2[nH]c2ccccc32)cc1OC (configuration not stated)	inconclusive: 0.398 µM [inhibitor, partial curve, poor fit]	–	–
O=C1NCCCCCCN(C(=O)Nc2ccccc2)[C@H]2C[C@H](c3nc(Cc4ccccc4)no3)C[C@@H]12	inconclusive: 1.41 µM [inhibitor, full curve, poor fit]	–	–
COc1ccc(-c2cc3[nH]ccc3c(C(=O)NCc3c(C)cc(C)[nH]c3=O)n2)cc1	inconclusive: 6.31 µM [inhibitor, partial curve, poor fit]	–	–

SMILES	Potency	activity, negative = inhibition	outcome
COc1ccc(CN2CC[C@@H]3[C@H]2C(=O)NC[C@H](CCC(=O)NCc2cccs2)N3C)cc1	inconclusive: 11.2 µM [inhibitor, single point]	–	–
Fc1ccc(-c2noc3ncnc(NCc4cccc(Cl)c4)c23)cc1	inconclusive: 17.8 µM [inhibitor, single point]	–	–
CCOC(=O)c1nnc2c(-c3ccc(F)cc3)c(C)nn2c1N	–	inactive: -8.47%	–
Cc1cc(C(=O)N2[C@H]3CC[C@@H]2c2cnc(-c4ccc(F)cc4)nc2C3)n[nH]1	inconclusive: 10 µM [inhibitor, single point]	–	–
CCN(CCOC)C(=O)c1coc(COc2ccc3sc(C)nc3c2)n1	inconclusive: 17.8 µM [inhibitor, single point]	–	–
O=C(Cn1cccc1-c1nc(-c2ccc3c(c2)OCO3)no1)Nc1ccc2c(c1)OCCO2	inconclusive: 17.8 µM [inhibitor, partial curve, poor fit]	–	–
Fc1ccccc1Nc1cnc2ccc(-c3ccccc3)nn12	inconclusive: 5.62 µM [inhibitor, single point]	–	–
Cn1nccc1C(=O)NCCC1CCN(C(=O)Nc2cc(F)cc(F)c2)CC1	inconclusive: 10 µM [inhibitor, single point]	–	–
CC(C)c1ccc(-c2noc(SCC(=O)N3CCCCC3)n2)cc1	inconclusive: 3.98 µM [inhibitor, single point]	–	–
CCCN(CCC)CCCNC(=O)c1nn(C)c2c1CS(=O)(=O)c1ccccc1-2	inconclusive: 10 µM [inhibitor, single point]	–	–
CCOc1ccccc1CN1C[C@@H](CO)[C@H](NC(=O)C2CC2)C1	active: 7.94 µM	–	–
COc1cc(C)ccc1OCCSc1nnc(-c2cccs2)o1	inconclusive: 10 µM [inhibitor, single point]	–	–
C1CC(c2noc(C3CC3)n2)CN1 (configuration not stated)	–	inactive: 13.9% [at 5.79 µM]	–
O=C(CCn1cnnn1)N1CCC(N2C(=O)C3(CCCC3)C2c2ccccc2)CC1 (configuration not stated)	inconclusive: 3.98 µM [inhibitor, partial curve, poor fit]	–	–
OC1CCOC2(CCN(Cc3ccccc3OC(F)(F)F)CC2)C1 (configuration not stated)	active: 5.62 µM	–	–
CN(C)c1nc(-c2ccncc2)nc2c1CCN(C(=O)Cc1n[nH]c(=O)[nH]1)C2	–	inactive: -20.5%	–
Cc1ccc(-c2onc(C)c2C)cc1S(=O)(=O)NC1CCC(C)CC1 (configuration not stated)	inconclusive: 17.8 µM [inhibitor, single point]	–	–
CCOc1cc(C2CC(=O)Nc3c2c(C)nn3-c2nc(C)cc(C)n2)ccc1O (configuration not stated)	–	inactive: -28.2%	–
COc1ccc(-c2cc(N3CCCN(C(=O)c4ccc(OC)cc4OC)CC3)n[nH]2)cc1	–	–	inactive
Cc1nc(C2CC(O)C2)cc(N2CCN(c3ccc(F)c(Cl)c3)CC2)n1 (configuration not stated)	inconclusive: 8.91 µM [inhibitor, single point]	–	–
COc1ccc2c(c1)Cc1sc(NC(=O)c3cccc(Cl)c3)nc1-2	inconclusive: 17.8 µM [inhibitor, single point]	–	–

SMILES	Potency	activity, negative = inhibition	outcome
Cc1ccc(-n2nc3n(c2=O)CCN(C(=O)c2cccc(Cl)c2)C3)cc1	inconclusive: 0.224 µM [inhibitor, full curve, poor fit]	–	–
CCN1CCN(Cc2cc(C)cc(CN(C)Cc3ccccn3)c2C)CC1	inconclusive: 2 µM [inhibitor, full curve, poor fit]	–	–
Cc1ccccc1C(=O)Nc1ccc2nc(SCC(=O)N(C)c3ccccc3)sc2c1	inconclusive: 11.2 µM [inhibitor, single point]	–	–
CN(C)C1(CNC(=O)COc2cccc(Cl)c2)CCCCC1	inconclusive: 5.01 µM [inhibitor, partial curve, poor fit]	–	–
Cc1cccc(Cn2c(SCc3ccc(C(=O)NCc4cccs4)cc3)nc3ccncc32)c1	inconclusive: 8.91 µM [inhibitor, single point]	–	–
Cc1nc(-c2ccc(N(C)C)cc2)cc([C@H]2CN3CC[C@H]2C[C@@H]3CNC(=O)C(C)(C)C)n1	active: 7.08 µM	–	–
COc1ccc(NC(=O)CCc2ccnc(N3CCCC3)c2)c(OC)c1	inconclusive: 12.6 µM [inhibitor, single point]	–	–
COc1ccc(C(=O)N2CCC3(CC2)NC(=O)N(c2ccccc2)N3)cn1	–	inactive: -0.389%	–
CN(Cc1cnccn1)c1ccc(-c2nc(CCCc3ccccc3)no2)cn1	inconclusive: 2.24 µM [inhibitor, full curve, poor fit]	–	–
COc1cncc(CN2CCC3(CC2)OC(=O)N(Cc2csc(C)n2)C3(C)c2ccccc2)c1 (configuration not stated)	inconclusive: 11.2 µM [inhibitor, single point]	–	–
CCc1ccc(C(=O)N2CCC3(CC2)N=C(c2ccc(C)cc2)NO3)cc1	–	–	inactive
Cn1cc(-c2cc3n(n2)CCC(=O)N3CC(=O)NCc2ccccc2)c2ccccc21	inconclusive: 17.8 µM [inhibitor, single point]	–	–
CC(C)c1ccc(NC(=O)CSC2=Nc3ccccc3C3=NC(CC(=O)NCCc4ccccc4)C(=O)N23)cc1 (configuration not stated)	inconclusive: 17.8 µM [inhibitor, single point]	–	–
COc1ccc(Cl)cc1NC(=O)c1c(NCc2cccs2)sc2c1CCC(C)C2 (configuration not stated)	active: 12.6 µM	–	–
N#Cc1cccc(C(=O)Nc2ccc3ncnc(N4CCCCC4)c3c2)c1	inconclusive: 2.82 µM [inhibitor, single point]	–	–
Cc1ccc(NC(=O)CSc2nc(=O)n(CCN3CCOCC3)c3c2CCC3)cc1Cl	inconclusive: 12.6 µM [inhibitor, single point]	–	–
O=C(NCc1nnc2ccc(-c3ccc(F)cc3)nn12)c1ccc(Cl)s1	inconclusive: 3.55 µM [inhibitor, partial curve, poor fit]	–	–
COc1ccccc1N1CCN(Cc2cc(COC(C)C)c3cccnc3c2O)CC1	active: 1.58 µM	–	–
O=C(NCCCn1cccn1)c1cccnc1N1CC2CC(C1)[C@H]1CCCC(=O)N1C2 (some centres not stated)	–	inactive: -17.7%	–
Cc1ccc(C2Cn3cnc(C(=O)N4CCC(C(=O)NCCC5=CCCCC5)CC4)c3CO2)cc1 (configuration not stated)	inconclusive: 10 µM [inhibitor, single point]	–	–
